From patent publication US20220411483A1 (Chugai, published 2022)
Substitutions are numbered along the chain they refer to.

T1: FcγRIIa R type extracellular domain, His tag (human, UniProt P12318 34-217)
T1 construct: extracellular domain; also called FcgRIIaR
T1 sequence (looked up): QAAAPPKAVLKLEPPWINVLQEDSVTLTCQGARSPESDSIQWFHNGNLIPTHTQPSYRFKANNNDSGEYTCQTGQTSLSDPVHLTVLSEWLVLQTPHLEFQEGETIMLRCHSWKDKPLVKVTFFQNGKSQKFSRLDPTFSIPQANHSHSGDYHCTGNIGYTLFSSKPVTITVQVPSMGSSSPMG

T2: FcγRIIb extracellular domain, His tag (human, UniProt P31994 43-217)
T2 construct: extracellular domain; also called FcgRIIb
T2 sequence (looked up): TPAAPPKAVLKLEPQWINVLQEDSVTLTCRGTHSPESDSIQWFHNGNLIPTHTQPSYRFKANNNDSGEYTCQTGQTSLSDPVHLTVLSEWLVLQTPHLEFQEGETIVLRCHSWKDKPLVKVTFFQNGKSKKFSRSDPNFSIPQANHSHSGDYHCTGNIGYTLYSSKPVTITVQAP

T3: FcγRIIa H type extracellular domain, His tag (human, UniProt P12318 34-217)
T3 construct: extracellular domain; also called FcgRIIaH
T3 sequence (looked up): T1 sequence (looked up) with R134H

B1: IL6R-P589/IL6R-L (antibody, human IgG1, kappa)
heavy: QVQLQESGPGLVKPSETLSLTCAVSGHSISHDHAWSWVRQPPGEGLEWIGFISYSGITNYNPSLQGRVTISRDNSKNTLYLQMNSLRAEDTAVYYCARSLARTTAMDYWGEGTLVTVSS[human IgG1 constant region with P238D Y296E (EU numbers) not shown]
light: DIQMTQSPSSLSASVGDRVTITCRASQDISSYLNWYQQKPGKAPKLLIYYTSRLHSGVPSRFSGSGSGTDFTFTISSLQPEDIATYYCQQGNTLPYTFGQGTKVEIKRTVAAPSVFIFPPSDEQLKSGTASVVCLLNNFYPREAKVQWKVDNALQSGNSQESVTEQDSKDSTYSLSSTLTLSKADYEKHKVYACEVTHQGLSSPVTKSFNRGEC
B2: IL6R-P724/IL6R-L (antibody, human IgG1, kappa)
heavy: QVQLQESGPGLVKPSETLSLTCAVSGHSISHDHAWSWVRQPPGEGLEWIGFISYSGITNYNPSLQGRVTISRDNSKNTLYLQMNSLRAEDTAVYYCARSLARTTAMDYWGEGTLVTVSS[human IgG1 constant region with G237Q P238D (EU numbers) not shown]
light: B1 light
B3: IL6R-P600/IL6R-L (antibody, human IgG1, kappa)
heavy: QVQLQESGPGLVKPSETLSLTCAVSGHSISHDHAWSWVRQPPGEGLEWIGFISYSGITNYNPSLQGRVTISRDNSKNTLYLQMNSLRAEDTAVYYCARSLARTTAMDYWGEGTLVTVSS[human IgG1 constant region with P238D S298A (EU numbers) not shown]
light: B1 light
B4: IL6R-P720/IL6R-L (antibody, human IgG1, kappa)
heavy: QVQLQESGPGLVKPSETLSLTCAVSGHSISHDHAWSWVRQPPGEGLEWIGFISYSGITNYNPSLQGRVTISRDNSKNTLYLQMNSLRAEDTAVYYCARSLARTTAMDYWGEGTLVTVSS[human IgG1 constant region with P238D S324H (EU numbers) not shown]
light: B1 light
B5: IL6R-P719/IL6R-L (antibody, human IgG1, kappa)
heavy: QVQLQESGPGLVKPSETLSLTCAVSGHSISHDHAWSWVRQPPGEGLEWIGFISYSGITNYNPSLQGRVTISRDNSKNTLYLQMNSLRAEDTAVYYCARSLARTTAMDYWGEGTLVTVSS[human IgG1 constant region with P238D S324N (EU numbers) not shown]
light: B1 light
B6: IL6R-P595/IL6R-L (antibody, human IgG1, kappa)
heavy: QVQLQESGPGLVKPSETLSLTCAVSGHSISHDHAWSWVRQPPGEGLEWIGFISYSGITNYNPSLQGRVTISRDNSKNTLYLQMNSLRAEDTAVYYCARSLARTTAMDYWGEGTLVTVSS[human IgG1 constant region with P238D Q295V (EU numbers) not shown]
light: B1 light
B7: IL6R-P601/IL6R-L (antibody, human IgG1, kappa)
heavy: QVQLQESGPGLVKPSETLSLTCAVSGHSISHDHAWSWVRQPPGEGLEWIGFISYSGITNYNPSLQGRVTISRDNSKNTLYLQMNSLRAEDTAVYYCARSLARTTAMDYWGEGTLVTVSS[human IgG1 constant region with P238D S298M (EU numbers) not shown]
light: B1 light
B8: IL6R-P590/IL6R-L (antibody, human IgG1, kappa)
heavy: QVQLQESGPGLVKPSETLSLTCAVSGHSISHDHAWSWVRQPPGEGLEWIGFISYSGITNYNPSLQGRVTISRDNSKNTLYLQMNSLRAEDTAVYYCARSLARTTAMDYWGEGTLVTVSS[human IgG1 constant region with P238D F241M (EU numbers) not shown]
light: B1 light
B9: IL6R-P725/IL6R-L (antibody, human IgG1, kappa)
heavy: QVQLQESGPGLVKPSETLSLTCAVSGHSISHDHAWSWVRQPPGEGLEWIGFISYSGITNYNPSLQGRVTISRDNSKNTLYLQMNSLRAEDTAVYYCARSLARTTAMDYWGEGTLVTVSS[human IgG1 constant region with P238D Y296D (EU numbers) not shown]
light: B1 light

target: T1, FcγRIIa R type extracellular domain, …; assay: SPR, KD ratio

| Relative FcgRIIaR-binding Activity | Binder |
| --- | --- |
| 0.046 fold of IL6R-G1d/IL6R-L | B1 |
| 0.031 fold of IL6R-G1d/IL6R-L | B2 |
| 0.026 fold of IL6R-G1d/IL6R-L | B3 |
| 0.039 fold of IL6R-G1d/IL6R-L | B4 |
| 0.044 fold of IL6R-G1d/IL6R-L | B5 |
| 0.039 fold of IL6R-G1d/IL6R-L | B6 |
| 0.048 fold of IL6R-G1d/IL6R-L | B7 |
| 0.034 fold of IL6R-G1d/IL6R-L | B8 |
| 0.046 fold of IL6R-G1d/IL6R-L | B9 |

target: T4, FcγRIIIa V type extracellular domain, His tag (human, UniProt P08637 part only); assay: SPR, KD ratio
T4 construct: extracellular domain; also called FcgRIIIaV
T4 sequence (P08637 17-208 F176V): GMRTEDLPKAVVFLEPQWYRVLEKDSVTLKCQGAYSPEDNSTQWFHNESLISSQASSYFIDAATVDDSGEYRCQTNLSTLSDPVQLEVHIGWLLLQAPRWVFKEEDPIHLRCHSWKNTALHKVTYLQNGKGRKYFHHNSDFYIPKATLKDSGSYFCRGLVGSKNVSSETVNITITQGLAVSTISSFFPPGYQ

| Relative FcgRIIIaV-binding Activity | Binder |
| --- | --- |
| 0.008 fold of IL6R-G1d/IL6R-L | B1 |
| 0.007 fold of IL6R-G1d/IL6R-L | B2 |
| 0.006 fold of IL6R-G1d/IL6R-L | B3 |
| 0.005 fold of IL6R-G1d/IL6R-L | B4 |
| 0.006 fold of IL6R-G1d/IL6R-L | B5 |
| 0.005 fold of IL6R-G1d/IL6R-L | B6 |
| 0.006 fold of IL6R-G1d/IL6R-L | B7 |
| 0.005 fold of IL6R-G1d/IL6R-L | B8 |
| 0.008 fold of IL6R-G1d/IL6R-L | B9 |

target: T5, FcγRIa extracellular domain, His tag (human, UniProt P12314 16-292); assay: SPR, KD ratio
T5 construct: whole entry named; also called FcgRIa

| Relative FcgRIa-binding Activity | Binder |
| --- | --- |
| 0.033 fold of IL6R-G1d/IL6R-L | B1 |
| 0.01 fold of IL6R-G1d/IL6R-L | B2 |
| 0.0943 fold of IL6R-G1d/IL6R-L | B3 |
| 0.034 fold of IL6R-G1d/IL6R-L | B4 |
| 0.0398 fold of IL6R-G1d/IL6R-L | B5 |
| 0.0825 fold of IL6R-G1d/IL6R-L | B7 |
| 0.0194 fold of IL6R-G1d/IL6R-L | B8 |
| 0.0206 fold of IL6R-G1d/IL6R-L | B9 |

target: T2, FcγRIIb extracellular domain, His tag; assay: SPR, KD ratio

| Relative FcgRIIb-binding Activity | Binder |
| --- | --- |
| 2.86 fold of IL6R-G1d/IL6R-L | B1 |
| 1.13 fold of IL6R-G1d/IL6R-L | B2 |
| 1.16 fold of IL6R-G1d/IL6R-L | B3 |
| 2.36 fold of IL6R-G1d/IL6R-L | B5 |
| 2.31 fold of IL6R-G1d/IL6R-L | B6 |
| 1.84 fold of IL6R-G1d/IL6R-L | B8 |
| 2.75 fold of IL6R-G1d/IL6R-L | B9 |

target: T3, FcγRIIa H type extracellular domain, …; assay: SPR, KD ratio

| Relative FcgRIIaH-binding Activity | Binder |
| --- | --- |
| 0.012 fold of IL6R-G1d/IL6R-L | B1 |
| 0.008 fold of IL6R-G1d/IL6R-L | B2 |
| 0.007 fold of IL6R-G1d/IL6R-L | B3 |
| 0.013 fold of IL6R-G1d/IL6R-L | B4 |
| 0.012 fold of IL6R-G1d/IL6R-L | B5 |
| 0.01 fold of IL6R-G1d/IL6R-L | B6 |
| 0.01 fold of IL6R-G1d/IL6R-L | B7 |
| 0.011 fold of IL6R-G1d/IL6R-L | B8 |
| 0.011 fold of IL6R-G1d/IL6R-L | B9 |

target: T1, FcγRIIa R type extracellular domain, …; assay: SPR, bound amount per captured antibody

| Relative FcgRIIaR-binding Activity | Binder |
| --- | --- |
| 27 % of IL6R-G1d/IL6R-L | B1 |
| 17.8 % of IL6R-G1d/IL6R-L | B2 |
| 16.5 % of IL6R-G1d/IL6R-L | B3 |
| 21.5 % of IL6R-G1d/IL6R-L | B4 |
| 24 % of IL6R-G1d/IL6R-L | B5 |
| 23.5 % of IL6R-G1d/IL6R-L | B6 |
| 27.3 % of IL6R-G1d/IL6R-L | B7 |
| 20.6 % of IL6R-G1d/IL6R-L | B8 |
| 24.5 % of IL6R-G1d/IL6R-L | B9 |

target: T2, FcγRIIb extracellular domain, His tag; assay: SPR, bound amount per captured antibody

| Relative FcgRIIb-binding Activity | Binder |
| --- | --- |
| 142 % of IL6R-G1d/IL6R-L | B1 |
| 101 % of IL6R-G1d/IL6R-L | B2 |
| 112 % of IL6R-G1d/IL6R-L | B3 |
| 130 % of IL6R-G1d/IL6R-L | B5 |
| 112 % of IL6R-G1d/IL6R-L | B6 |
| 126 % of IL6R-G1d/IL6R-L | B8 |
| 136 % of IL6R-G1d/IL6R-L | B9 |

target: T5, FcγRIa extracellular domain, His tag; assay: SPR kinetics, antibody captured
T5 sequence (P12314 16-292): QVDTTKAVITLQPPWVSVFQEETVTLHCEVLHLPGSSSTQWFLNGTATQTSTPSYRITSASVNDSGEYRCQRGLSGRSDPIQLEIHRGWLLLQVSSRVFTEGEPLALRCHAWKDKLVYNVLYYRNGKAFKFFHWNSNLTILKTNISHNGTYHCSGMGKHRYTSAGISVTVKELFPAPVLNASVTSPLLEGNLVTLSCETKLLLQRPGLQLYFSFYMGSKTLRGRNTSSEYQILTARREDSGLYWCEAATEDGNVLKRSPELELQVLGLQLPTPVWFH

| Kd | Binder |
| --- | --- |
| 10 nM | B1 |
| 33 nM | B2 |
| 3.5 nM | B3 |
| 9.7 nM | B4 |
| 8.3 nM | B5 |
| 4 nM | B7 |
| 17 nM | B8 |
| 16 nM | B9 |

target: T2, FcγRIIb extracellular domain, His tag; assay: SPR kinetics, antibody captured

| Kd | Binder |
| --- | --- |
| 1800 nM | B1 |
| 4600 nM | B2 |
| 4400 nM | B3 |
| 2200 nM | B5 |
| 2200 nM | B6 |
| 2800 nM | B8 |
| 1900 nM | B9 |
